Read-outs that look alike come from different tables or passages of the source. At least one structure is not confirmed: it was looked up by name or label, or the drawing left a doubt. Starred links: 1 amine or outer side, 2 acyl side, 3 side chain; linkers in the order of their positions; H or OH if unused. Non-standard residues stand in square brackets, D forms with d. Groups on a side chain read outwards from the residue. No end group written: not given here. *: point of attachment. C18 diacid = O=C(O)CCCCCCCCCCCCCCCCC(=O)*; αMePhe(2-F) = C[C@](N)(Cc1ccccc1F)C(=O)O; γGlu = O=C(O)[C@H](CCC(=O)[*:2])N[*:1]; αMe4Pal = C[C@](N)(Cc1ccncc1)C(=O)O; αMeY = C[C@](N)(Cc1ccc(O)cc1)C(=O)O; 4Pal = N[C@@H](Cc1ccncc1)C(=O)O; αMeL = CC(C)C[C@](C)(N)C(=O)O; αMeS = C[C@](N)(CO)C(=O)O; Orn = NCCC[C@H](N)C(=O)O; AEEA = NCCOCCOCC(=O)O; Aib = CC(C)(N)C(=O)O
Key:
Assay type in all cases: cell-based
hGIPR [1] = target: T1, hGIPR (Homo sapiens, UniProt P48546); assay: Functional cAMP activity in the presence of 1% HSA; settings: geometric mean of relative EC50, read-out: cAMP Rel EC50, hGIPR
T1 sequence (P48546 22-466): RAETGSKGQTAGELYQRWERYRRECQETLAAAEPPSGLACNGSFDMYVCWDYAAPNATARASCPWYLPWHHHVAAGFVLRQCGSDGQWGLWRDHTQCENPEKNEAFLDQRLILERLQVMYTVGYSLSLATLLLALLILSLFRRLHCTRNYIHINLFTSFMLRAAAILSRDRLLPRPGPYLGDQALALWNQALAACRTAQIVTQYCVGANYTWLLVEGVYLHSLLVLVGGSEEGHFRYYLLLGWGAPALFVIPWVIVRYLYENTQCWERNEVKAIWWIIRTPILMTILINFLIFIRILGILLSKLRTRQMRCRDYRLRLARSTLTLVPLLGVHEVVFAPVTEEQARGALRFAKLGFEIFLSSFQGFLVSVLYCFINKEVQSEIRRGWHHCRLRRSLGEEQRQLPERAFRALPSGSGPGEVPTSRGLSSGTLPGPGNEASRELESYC

hGLP-1R [2] = target: T2, hGLP-1R (Homo sapiens, UniProt P43220); assay: Functional cAMP activity in the presence of 1% HSA; settings: geometric mean of relative EC50, read-out: cAMP Rel EC50, hGLP-1R
human GcgR = human GcgR (Homo sapiens, UniProt P47871); assay: Functional cAMP activity in the presence of 1% HSA; settings: geometric mean of relative EC50, read-out: cAMP Rel EC50, hGcgR
hGIPR [3] = target: T1, hGIPR; assay: Functional cAMP activation in the presence of 0.1% casein (no HSA)
hGLP-1R [4] = target: T2, hGLP-1R; assay: as above
hGcgR = hGcgR (Homo sapiens, UniProt P47871); assay: as above
[5] = HEK-293 clonal cell line, in the presence of 1% HSA
[6] = in the presence of 0.1% casein (no HSA), geometric mean, read-out: Relative cAMP EC50, hGIPR
[7] = in the presence of 0.1% casein (no HSA), geometric mean, read-out: Relative cAMP EC50, hGLP-1R
[8] = in the presence of 0.1% casein (no HSA), geometric mean, read-out: Relative cAMP EC50, hGcgR
[9] = HEK-293 clonal cell line, 1% HSA
[10] = in the presence of 0.1% casein (no HSA), geometric mean of relative EC50

Chain of hGcgR (P47871 26-477): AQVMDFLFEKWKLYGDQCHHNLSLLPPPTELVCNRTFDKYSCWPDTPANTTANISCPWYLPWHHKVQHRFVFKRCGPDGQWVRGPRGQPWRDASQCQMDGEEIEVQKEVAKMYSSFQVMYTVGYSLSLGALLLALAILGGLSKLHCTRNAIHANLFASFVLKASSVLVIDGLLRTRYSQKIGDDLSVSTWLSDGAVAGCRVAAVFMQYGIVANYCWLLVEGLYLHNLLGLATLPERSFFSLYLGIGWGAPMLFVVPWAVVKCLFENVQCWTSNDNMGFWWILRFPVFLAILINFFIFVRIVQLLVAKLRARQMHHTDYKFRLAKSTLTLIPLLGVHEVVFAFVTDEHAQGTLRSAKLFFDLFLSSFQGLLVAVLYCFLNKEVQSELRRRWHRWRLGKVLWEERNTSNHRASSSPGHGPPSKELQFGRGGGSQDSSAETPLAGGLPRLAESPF
Chain of human GcgR (P47871 26-477): as above
T2 sequence (P43220 24-463): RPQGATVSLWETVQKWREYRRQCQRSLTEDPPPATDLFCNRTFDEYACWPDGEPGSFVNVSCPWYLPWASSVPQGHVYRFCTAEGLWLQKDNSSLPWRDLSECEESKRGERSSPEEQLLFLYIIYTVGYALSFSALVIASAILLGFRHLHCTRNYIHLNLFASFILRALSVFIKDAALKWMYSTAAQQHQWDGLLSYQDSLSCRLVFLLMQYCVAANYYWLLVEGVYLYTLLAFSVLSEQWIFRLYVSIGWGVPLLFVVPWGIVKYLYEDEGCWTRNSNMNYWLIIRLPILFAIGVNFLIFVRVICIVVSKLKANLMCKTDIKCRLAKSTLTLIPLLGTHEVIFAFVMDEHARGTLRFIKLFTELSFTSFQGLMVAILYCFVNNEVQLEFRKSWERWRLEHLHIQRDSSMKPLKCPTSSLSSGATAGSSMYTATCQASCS

Row | Substance | EC50 (hGIPR [1]; [5]) | EC50 (hGLP-1R [2]; [5]) | EC50 (human GcgR; [5]) | EC50 (hGIPR [3]; [6]) | EC50 (hGLP-1R [4]; [7]) | EC50 (hGcgR; [8]) | EC50 (hGIPR [1]; [9]) | EC50 (hGLP-1R [2]; [9]) | EC50 (human GcgR; [9]) | EC50 (hGIPR [3]; [10]) | EC50 (hGLP-1R [4]; [10]) | EC50 (hGcgR; [10]) | further results
1 | H-Y[Aib]QGTFTSD[4Pal]SQ[αMeL]LD[Orn]K([dE-γGlu-C18 diacid])AQ[αMe4Pal]EFI[dE][αMeY]LIAGGPSSGAPPPSGSEEE-NH2 [Example 1235] | – | – | – | – | – | – | – | – | – | – | – | – | EC50 (hGIPR [1]; HEK-293 cells expressing hGIPR, 1% HSA): 20.3 nM; EC50 (hGLP-1R [2]; HEK-293 cells expressing hGLP-1R, 1% HSA): 1800 nM; EC50 (human GcgR; HEK-293 cells expressing hGcgR, 1% HSA): > 9950 nM; EC50 (hGIPR [3]; 0.1% casein, no HSA, geometric mean, read-out: Relative cAMP EC50, hGIPR): 0.241 nM; EC50 (hGLP-1R [4]; 0.1% casein, no HSA, geometric mean, read-out: Relative cAMP EC50, hGLP-1R): 25.3 nM; EC50 (hGcgR; 0.1% casein, no HSA, geometric mean, read-out: Relative cAMP EC50, hGcgR): 455 nM
2 | H-Y[Aib]QGTFTSD[4Pal]SQ[αMeL]LD[Orn]K([γGlu-γGlu-C18 diacid])AQ[αMe4Pal]AFIEYLIAGGPSSGAPPPSGSEE-NH2 [Example 1035] | 16 nM | 167 nM | 1380 nM | 0.131 nM | 1.29 nM | 14.5 nM | – | – | – | – | – | – | –
3 | H-Y[Aib]QGTFTSD[4Pal]SQ[αMeL]LD[Orn]K([γGlu-γGlu-C18 diacid])AQ[αMe4Pal]EFIE[αMe4Pal]LLAGGPSSGAPPPSGSEE-NH2 [Example 999] | 10.4 nM | 3020 nM | 2130 nM | 0.128 nM | 34.8 nM | 19.4 nM | – | – | – | – | – | – | –
4 | H-Y[Aib]QGTFTSD[4Pal]SQ[αMeL]LD[Orn]K([γGlu-γGlu-C18 diacid])AQ[αMe4Pal]QFIE[αMe4Pal]LLAGGPSSGAPPPSGSEE-NH2 [Example 998] | 6.78 nM | 1470 nM | 794 nM | 0.0906 nM | 14.3 nM | 8.96 nM | – | – | – | – | – | – | –
5 | H-Y[Aib]QGTFTSD[4Pal]S[Orn][αMeL]LDKK([AEEA-γGlu-C18 diacid])AQ[αMe4Pal]AFIE[αMeY]LIEGGPSSGAPPPSGS-NH2 [Example 497] | – | – | – | – | – | – | 32.6 nM | 161 nM | 418 nM | 0.297 nM | 1.08 nM | 2.7 nM | –
6 | H-Y[Aib]QGTFTSD[4Pal]S[Orn][αMeL]LDKK([AEEA-γGlu-C18 diacid])AQ[αMe4Pal]AFIE[αMeY]LIEGGPSSGAPPPSGS-NH2 [Example 842] | 31.2 nM | 164 nM | 415 nM | 0.284 nM | 1.08 nM | 2.35 nM | – | – | – | – | – | – | –
7 | H-Y[Aib]QGTFTSD[4Pal]S[Orn][αMeL]LDKK([γGlu-γGlu-C18 diacid])AQ[αMe4Pal]AFIEYLIAGGPSSGAPPPSESE-NH2 [Example 1010] | 15.1 nM | 218 nM | 214 nM | 0.159 nM | 2.89 nM | 4.5 nM | – | – | – | – | – | – | –
8 | H-Y[Aib]QGTFTSD[4Pal]S[Orn][αMeL]LDKK([γGlu-γGlu-C18 diacid])AQ[αMe4Pal]AFIEYLIAGGPSSGAPPPSGSEE-NH2 [Example 961] | 13.6 nM | 216 nM | 342 nM | 0.167 nM | 2.52 nM | 2.96 nM | – | – | – | – | – | – | –
9 | H-Y[Aib]QGTFTSD[4Pal]S[Orn][αMeL]LDKK([γGlu-γGlu-C18 diacid])AQ[αMe4Pal]AFIE[αMeY]LIEGGPSSGAPPPSGSE-NH2 [Example 966] | 35.9 nM | 257 nM | 581 nM | 0.15 nM | 1.23 nM | 1.87 nM | – | – | – | – | – | – | –
10 | H-Y[Aib]QGTFTSD[4Pal]S[Orn][αMeL]LD[Orn]K([γGlu-γGlu-C18 diacid])AQ[αMe4Pal]AFIEYLIAGGPSSGAPPPSESE-NH2 [Example 1012] | 15.9 nM | 223 nM | 533 nM | 0.206 nM | 1.81 nM | 4.36 nM | – | – | – | – | – | – | –
11 | H-Y[Aib]QGTFTSD[4Pal]S[Orn][αMeL]LD[Orn]K([γGlu-γGlu-C18 diacid])AQ[αMe4Pal]EFIE[αMe4Pal]LIAGGPSSGAPPPSGSEE-NH2 [Example 993] | 14.5 nM | 1210 nM | 1860 nM | 0.138 nM | 17.6 nM | 20.8 nM | – | – | – | – | – | – | –
12 | H-Y[Aib]QGTFTSD[4Pal]S[Orn][αMeL]LD[Orn]K([γGlu-γGlu-C18 diacid])AQ[αMe4Pal]QFIE[αMe4Pal]LIAGGPSSGAPPPSGSEE-NH2 [Example 992] | 12.5 nM | 643 nM | 863 nM | 0.165 nM | 7.86 nM | 10.8 nM | – | – | – | – | – | – | –
13 | H-Y[Aib]QGTFTSD[4Pal]S[Orn][αMeL]LD[Orn]K([γGlu-γGlu-C18 diacid])AQ[αMe4Pal]QFIE[αMe4Pal]LLAGGPSSGAPPPSGSEE-NH2 [Example 995] | 6.12 nM | 1660 nM | 295 nM | 0.118 nM | 27.7 nM | 3.18 nM | – | – | – | – | – | – | –
14 | H-Y[Aib]QGTFTSD[4Pal]S[Orn][αMeL]LD[Orn]K([γGlu-γGlu-C18 diacid])AQ[αMe4Pal][Orn]FIE[αMe4Pal]LIAGGPSSGAPPPSGSEE-NH2 [Example 994] | 30.8 nM | 395 nM | 1050 nM | 0.359 nM | 4.42 nM | 9.51 nM | – | – | – | – | – | – | –
15 | H-Y[Aib]QGTFTSD[4Pal][αMeS]Q[αMeL]LD[Orn]K([dE-γGlu-C18 diacid])AQ[αMe4Pal]QFIQ[αMeY]LIA[Aib]GPSSGAPPPSGGGE-NH2 [Example 1132] | 1.89 nM | 38.8 nM | 184 nM | 0.0335 nM | 0.681 nM | 2.11 nM | – | – | – | – | – | – | –
16 | H-Y[Aib]QGT[αMePhe(2-F)]TSDYSILLDAK([AEEA-γGlu-C18 diacid])AQ[Aib]AFIEYLEEGGPSSGAPPPSEG-NH2 [Example 410] | – | – | – | – | – | – | 49.3 nM | 84.4 nM | 1950 nM | 0.0708 nM | 0.354 nM | 9.94 nM | –
17 | H-Y[Aib]QGT[αMePhe(2-F)]TSD[4Pal]SILLDKK([γGlu-γGlu-C18 diacid])AQ[Aib]AFIEYLEEGGPSSGAPPPSGTE-OH [Example 511] | – | – | – | – | – | – | 6.55 nM | 108 nM | 594 nM | 0.0914 nM | 1.05 nM | 8.75 nM | –
18 | H-Y[Aib]QGT[αMePhe(2-F)]TSD[4Pal]SILLDKK([γGlu-γGlu-C18 diacid])AQ[Aib]AFIEYLEEGGPSSGAPPPSGTGE-OH [Example 512] | – | – | – | – | – | – | 9.2 nM | 112 nM | 891 nM | 0.0697 nM | 1.32 nM | 7.34 nM | –
19 | H-Y[Aib]QGT[αMePhe(2-F)]TSD[4Pal]SILLD[Orn]K([AEEA-γGlu-C18 diacid])AQ[αMe4Pal]EFI[dE][αMeY]LLEGGPSSGAPPPSGS-NH2 (C-terminus assumed) [Example 670] | – | – | – | – | – | – | 1.9 nM | 104 nM | 489 nM | 0.0135 nM | 0.683 nM | 3.28 nM | –
20 | H-Y[Aib]QGT[αMePhe(2-F)]TSD[4Pal]SILLD[Orn]K([γGlu-γGlu-C18 diacid])AQ[Aib]AFIEYLEEGGPSSGAPPPSGTE [Example 515] | – | – | – | – | – | – | 14.9 nM | 108 nM | 1070 nM | 0.0893 nM | 0.825 nM | 6.47 nM | –
21 | H-Y[Aib]QGT[αMePhe(2-F)]TSD[4Pal]SILLD[Orn]K([γGlu-γGlu-C18 diacid])AQ[Aib]AFIEYLEEGGPSSGAPPPSGTGE [Example 516] | – | – | – | – | – | – | 13.6 nM | 111 nM | 1410 nM | 0.112 nM | 0.907 nM | 8.45 nM | –
22 | H-Y[Aib]QGT[αMePhe(2-F)]TSD[4Pal]SI[αMeL]LD[Orn]K([AEEA-γGlu-C18 diacid])AQ[αMe4Pal][Orn]FI[dE][αMeY]LIEGGPSSGAPPPEGT-NH2 [Example 508] | – | – | – | – | – | – | 0.856 nM | 17.5 nM | 255 nM | 0.00883 nM | 0.173 nM | 1.82 nM | –
